According to US12290565B2, “Methods of using anti-PSGL-1 antibodies in combination with JAK inhibitors to treat T-cell mediated inflammatory diseases or cancers” (AltruBio Inc., priority 2021, dated 2025):

Key:
[1] = system: activated T cells; assay: Fixed-ratio combination cytotoxicity assay, ruxolitinib + LH10, c43B6 or h9F9; type: cell-based; conditions: antibody with cross-linker
Procedure: PBMCs were obtained from peripheral blood of healthy donors. Isolation was performed by density centrifugation of blood on Ficoll (GE Healthcare, Cat #17-1440-03). The harvested PBMCs were used for the generation of activated T cells by incubating with PHA (3 μg/mL, SIGMA, Cat: L2769-10 mg) in RPMI-1640 medium (10% FBS, 1% Penicillin/Streptomycin and 2-Mercaptoethanol) for 2 days, followed by maintenance in medium containing recombinant human Interleukin-2 (5 ng/mL, R&D Systems, Cat. #202-IL-050) for an additional between about 4˜6 days.
In addition to 15A7H, anti-PSGL-1 antibodies LH10, c43B6 and h9F9 were tested for the ability to induce cell death in activated T cells. The purpose of this study was to determine whether apoptosis inducing anti-PSGL-1 antibodies plus ruxolitinib would result in a better cytotoxic effect on activated T cells. The combinatorial effect was evaluated using Chou-Talalay median effect analysis using fixed ratios of antibodies and ruxolitinib in cytotoxicity assays. […]
Cell apoptosis was determined as described in Example 1, and the combinatorial drug effect combination indexes (CI) were analyzed using CalcuSyn (Biosoft, Ferguson, MO, USA), which allows automated simulation of synergism or antagonism, where CI<1 indicates synergy, CI=1 indicates additivity, and CI>1 indicates antagonism.

[2] = system: activated T cells; assay: T cell apoptosis assay (Annexin V/PI FACS), 15A7H and/or ruxolitinib; type: cell-based, human
Procedure: T cell stimulation was achieved through Phytohemagglutinin-L (PHA) treatment prior to the apoptosis assays described below. In brief, human blood samples used in the study were obtained from heathy human donors. Peripheral blood mononuclear cells (PBMCs) were freshly isolated from whole blood by Ficoll-Hypaque gradient centrifugation (Ficoll-Paque PLUS, GE Healthcare, Cat #17-1440-03) at 2400 revolutions per minute (rpm) for 15 minutes at room temperature. The buffy coat layer containing mononuclear cells was collected and washed 3 times with phosphate-buffered saline (PBS) to minimize platelet contamination. […]
Fluorescence-activated cell sorting (FACS) analysis using the Annexin V/propidium iodide (PI) staining method was used to determine the apoptotic rate in drug- and control-treated cells. […]
Samples were run on a flow cytometer (BD LSR scanner; BD Biosciences, San Diego), and cell viability and apoptosis were calculated using a quadrant on the Annexin-V-FITC/PI histogram. Living cells were identified as those negatively stained for both fluorescence dyes, early apoptotic cells were identified as those only Annexin-V-FITC-positive, necrotic cells were identified as those only PI-positive, and late apoptotic cells were identified as those positively stained for both fluorescence dyes. […]

[3] = system: activated T cells; assay: Fixed-ratio combination cytotoxicity assay, ruxolitinib + 15A7H (Chou-Talalay, Calcusyn); type: cell-based, human; conditions: RUXO + 15A7H; for DRI15A7H (Dose-Reduction Index): EC50 level
Procedure: T cell stimulation was achieved through Phytohemagglutinin-L (PHA) treatment prior to the apoptosis assays described below. In brief, human blood samples used in the study were obtained from heathy human donors. […] The buffy coat layer containing mononuclear cells was collected and washed 3 times with phosphate-buffered saline (PBS) to minimize platelet contamination.
Activated T cells were seeded in 96-well plates at 1-1.5×10^5 cells/mL and were treated with ruxolitinib and antibody 15A7H alone, or in combination at fixed concentration ratios. For the combination of ruxolitinib and antibody 15A7H, fixed ratios at 3.3:1 and 1.1:1 were tested on T cells from four donors. In addition, a fixed ratio of ruxolitinib and antibody 15A7H of 0.37:1 was tested on T cells from two donors.
Cell apoptosis was measured using an Annexin-V FITC Apoptosis Detection Kit (Strong Biotech, AVK250), according to the manufacturer's instructions.
Results were expressed as apoptosis fractions (fraction affected), based on the measured fluorescence counts of treated samples, compared with that of untreated controls. Seven diagonals representing various dose-effect curves with fixed drug ratios were used to measure the combination indexes (CI) for each of the combinations with Calcusyn software (Biosoft). The combinatorial effect was defined as “synergistic”, “additive” or “antagonistic” when CI was <1, 1 and >1, respectively.

[4] = system: xenogeneic GvHD in ASID mice engrafted with human PBMCs; assay: Xenogeneic graft-versus-host disease (GvHD) mouse model, survival; type: in vivo; conditions: ruxolitinib 45 mg/kg oral twice daily 15 days and/or 15A7H 10 mg/kg i.v. every 3 to 4 days, 5 doses
Procedure: 8-9 weeks old female Advanced Severe Immuno-Deficiency (ASID) mice (NOD.Cg-Prkdc^scidIl2rg^tm1Wjl/YckNarl; NLAC NARLabs Taiwan) received a total body irradiation dose of 2.0 Gy and were engrafted with 3×10^6 human PBMCs by tail vein injection at 24 hours post irradiation. The mice were kept under pathogen-free conditions and reared under standardized methods as temperature set at 22±1° C. with a 12-hour daylight/dark cycle and full access to food and water. Experimental animals were randomly divided into treatment groups after receiving a minimum of 3 days of acclimatization to the environment.
Xenogeneic GvHD (xGvHD) was induced in ASID mice receiving 3×10^6 human PBMCs (n=5-7 per group). Post 72 hours of human PBMC engraftment, ruxolitinib at 45 mg/kg or vehicle was orally administered twice daily for 15 days, as well as anti-PSGL-1 15A7H antibody at 10 mg/kg or vehicle was intravenously administered every 3 to 4 days for total 5 doses. Mice were assessed for survival daily. The time of the treatment initiated was designated as Day 1.

[5] = system: patients with SR-aGVHD or TR-aGVHD; assay: Phase 1 open-label study of 15A7H in SR-aGVHD or TR-aGVHD; type: in vivo, human; conditions: 6-4-4-4 mg/kg weekly regimen
Procedure: Anti-PSGL-1 antibody 15A7H was tested in patients with SR-aGVHD or TR-aGVHD using multiple doses of antibody. Study participants were assigned to receive a first dose of antibody 15A7H at 6 mg/kg, followed by weekly doses of antibody 15A7H at 4 mg/kg for 3 weeks (6-4-4-4 regimen).
This study included patients with SR-aGVHD without any prior systemic treatment other than corticosteroids, as well as patients with TR-aGVHD with one prior systemic treatment for aGVHD, including JAK inhibitors, in addition to corticosteroids. Participants treated with antibody 15A7H in combination with an additional systemic treatment were also included in the study.
An analysis of efficacy was conducted after enrollment of 24 participants in this study to determine the likelihood of reaching pre-established futility criteria. Of 24 participants, 12 participants were categorized as steroid refractory (SR) and 12 participants as treatment refractory (TR).

B1: c43B6: anti-PSGL-1 antibody; heavy chain SEQ ID NO:27, light chain SEQ ID NO:31 (antibody)
heavy: EVQLQQSGPDLVKPGALVKISCKASGYSFTAYYIHWVKQSHGKSLEWIGRVNPNTGGTSYNPKFKGKAILNVDKSSSTAYMELRSLTSEDSAVYYCARSGSPYYRYDDWGQGTTLTVSSASTKGPSVFPLAPCSRSTSESTAALGCLVKDYFPEPVTVSWNSGALTSGVHTFPAVLQSSGLYSLSSVVTVPSSSLGTKTYTCNVDHKPSNTKVDKRV[human IgG4 Fc with S228P (EU numbers) omitted here]
light: ENVLTQSPAIMSASPGEKVTMTCRASSTVNSTYLHWFQQKSGASPKLWIYGSSNLASGVPARFSGSGSGTSYSLTISSVEAEDAATYYCQQYSGYPLTFGAGTTLELKRTVAAPSVFIFPPSDEQLKSGTASVVCLLNNFYPREAKVQWKVDNALQSGNSQESVTEQDSKDSTYSLSSTLTLSKADYEKHKVYACEVTHQGLSSPVTKSFNRGEC
[1]
  cytotoxicity ability in activated T cells: had cytotoxicity ability

B2: 15A7H: anti-PSGL-1 antibody, IgG4 hinge S228P; light chain SEQ ID NO:1, heavy chain SEQ ID NO:2 (antibody)
heavy: EVQLVESGGGLVQPGGSLRLSCAASGFTFSSFGMHWVRQAPGKGLEWVAYINGGSSTIFYANAVKGRFTISRDNAKNTLYLQMNSLRAEDTAVYYCARYASYGGGAMDYWGQGTLVTVSSASTKGPSVFPLAPCSRSTSESTAALGCLVKDYFPEPVTVSWNSGALTSGVHTFPAVLQSSGLYSLSSVVTVPSSSLGTKTYTCNVDHKPSNTKVDKRV[human IgG4 Fc with S228P (EU numbers) omitted here]
light: DIQMTQSPSSLSASVGDRVTITCRSSQSIVHNDGNTYFEWYQQKPGKAPKLLIYKVSNRFSGVPSRFSGSGSGTHFTLTISSLQPEDFATYYCFQGSYVPLTFGQGTKVEIKRTVAAPSVFIFPPSDEQLKSGTASVVCLLNNFYPREAKVQWKVDNALQSGNSQESVTEQDSKDSTYSLSSTLTLSKADYEKHKVYACEVTHQGLSSPVTKSFNRGEC
[2]; 15A7H alone at 3 μg/mL, with antibody cross-linker, 48 hours, three donors
  apoptosis-induction in activated T cells: optimal apoptosis-induction
[2]; 15A7H alone at sub-optimal 0.03 μg/mL and 0.3 μg/mL, depending on the donor
  apoptosis-induction in activated T cells: minimal to medium apoptosis-induction
[3]; donor N084, ratio 1.1:1
  EC5015A7H Combination Treatment: 0.1810 µg/mL
  DRI15A7H (Dose-Reduction Index): 1.8093
[3]; donor N084, ratio 3.3:1
  EC5015A7H Combination Treatment: 0.1118 µg/mL
  DRI15A7H (Dose-Reduction Index): 2.9286
[3]; donor N089, ratio 1.1:1
  EC5015A7H Combination Treatment: 0.3544 µg/mL
  DRI15A7H (Dose-Reduction Index): 2.3009
[3]; donor N089, ratio 3.3:1
  EC5015A7H Combination Treatment: 0.1436 µg/mL
  DRI15A7H (Dose-Reduction Index): 6.0249
[3]; donor N102, ratio 0.37:1
  EC5015A7H Combination Treatment: 0.4450 µg/mL
  DRI15A7H (Dose-Reduction Index): 2.1549
[3]; donor N102, ratio 1.1:1
  EC5015A7H Combination Treatment: 0.4494 µg/mL
  DRI15A7H (Dose-Reduction Index): 2.1339
[3]; donor N102, ratio 3.3:1
  EC5015A7H Combination Treatment: 0.3456 µg/mL
  DRI15A7H (Dose-Reduction Index): 2.7749
[3]; donor N103, ratio 0.37:1
  EC5015A7H Combination Treatment: 0.7192 µg/mL
  DRI15A7H (Dose-Reduction Index): 1.9508
[3]; donor N103, ratio 1.1:1
  EC5015A7H Combination Treatment: 0.4984 µg/mL
  DRI15A7H (Dose-Reduction Index): 2.8153
[3]; donor N103, ratio 3.3:1
  EC5015A7H Combination Treatment: 0.3026 µg/mL
  DRI15A7H (Dose-Reduction Index): 4.6368
[4]
  effect on xenogeneic GVHD induced by human lymphocytes: ameliorated xenogeneic GVHD
[5]; steroid refractory (SR) participants, 4/12
  Overall Response: 33%
[5]; treatment refractory (TR) participants, 8/12
  Overall Response: 67%
